Source: the RNAGym collection of RNA variant scans (doi:10.1093/nar/gkz1192)
Read counts are not given, so values of variants with three or more changes are uncertain.

B1: CPEB3 Ribozyme (parent)
chain: UAACAGGGGGCCACAGCAGAAGCGUUCACGUCGCAGCCCCUGUCAGAUUCUGGUGAAUCUGCGAAUUCUGCUGUAUAUCUC

Variants of: B1
Test: self-cleavage, relative activity (ratio to wild type); higher = more cleavage; in vitro, sequencing
Summary of the method: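 Barcoded CPEB3 ribozyme mutants, produced by rounds of error-prone PCR, self-cleaved while being transcribed with T7 RNA polymerase for 5 hours at 37°C and during a subsequent 15 min DNase I step before EDTA was added. Sequencing of template-switched cDNA on Illumina gave cleaved and total reads, and DNA sequencing assigned barcodes to variants. Each variant's relative activity is its cleaved/total read fraction divided by the unmutated ribozyme's fraction, averaged across three batches. A variant needed a minimum of 5 reads.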

Variant | self-cleavage
U49C G53A C59A U74A U76G | 0.07
U49C G53U U78C | 0.2
U49C G63A C71U | 0.24
U49C U51A A56U | 0.75
U49C U51C U67C U69A | 0.14
U49C U51C U78C | 0.42
U49C U51C U80C | 0.59
U49C U54C A64U U78C | 0.13
U49C U54C A65G | 0.31
U49C U54C U60C U76A | 0.38
U49C U58C A64G | 0.28
U49C U58C C62U | 0.23
U49C U58C C68U | 0.14
U49C U58C U78C | 0.17
U49C U60A U69C | 0.15
U49C U60A U72C | 0.13
U49C U60A U76C | 0.12
U49C U60C C62U | 0.09
U49C U69C U80C | 0.34
U49C U78C U80C | 0.38
U49G U58C A64G | 0.16
U49G U66C U76A | 0.17
C50A U51C G52A U67C | 0.28
C50U U66C G70A | 0.3
U51A A56G C62U | 0.25
U51A A56G U66C | 0.14

Variant | self-cleavage
U51A A56G U72C A77G | 0.68
U51A A56U U66C | 0.2
U51A A57C U72C | 0.68
U51A A57G U67G A75G | 0.09
U51A A64G U67C | 0.49
U51A A64G U72G | 0.62
U51A A77G U78C | 0.79
U51A C71U A77G | 0.7
U51A G55U U60C G63A U74C U76A | 0.55
U51A U54C U67C | 0.3
U51A U58A U69C U72A | 0.41
U51A U58A U72C | 0.52
U51A U69C A77G | 0.78
U51C A56G A57U | 0.3
U51C A56G U72G | 0.47
U51C A56U A57G | 0.4
U51C A56U A57G A77G | 0.2
U51C A57C U78C | 0.32
U51C A57G U60A U76C | 0.32
U51C A64G U66C U80C | 0.24
U51C A65G U78C | 0.47
U51C G52U U54C | 1.18
U51C G52U U58C U67C | 0.19
U51C G55U A57G | 0.46
U51C G61A U69C U76C | 0.62
U51C U54A A64G U72C U78A U80A | 0.66

Variant | self-cleavage
U51C U54A U74C | 1.26
U51C U54C C71U | 0.56
U51C U54C U69G | 0.84
U51C U58A A75G | 0.19
U51C U58A U60C U80C | 0.13
U51C U60A U76C | 0.32
U51C U60C A65G | 0.36
U51C U60C G70U | 0.32
U51C U67A U72C | 0.51
U51C U67C U69C | 0.33
U51C U67C U78C | 0.63
U51C U67G U74C | 0.41
U51C U72A U76A | 0.29
U51G A57G U67C U72C | 0.17
U51G A65G U67C U72C | 0.33
U51G U54C U58C C62A | 0.63
U51G U54G U69C | 0.19
U51G U58C G63U | 0.37
G52A A56U U60C | 0.31
G52A G55C U69A | 0.67
G52A G70A U74C U80C | 0.76
G52A U74C A75U U80C | 1.19
G52A U76C A77U | 1.34
G52C U60C A64U U78C | 0.24
G52U A57G A64G | 0.92
G52U A64G U66C U78A | 0.32

Variant | self-cleavage
G52U G63U A64G C68U | 0.49
G52U G63U U80A | 1.21
G52U U54G A57G | 0.92
G53A U54C U66C U74C | 0.39
G53A U54C U69A | 0.8
G53A U67C C79U | 0.52
G53A U69C U74A U78C | 0.43
G53C A57G A65C U66G | 0.11
G53C U58G U72A | 0.17
G53U A57G A64G | 1.11
U54A A56G A57G | 0.32
U54A C59A U76A U80C | 0.28
U54A G61A C62U | 0.25
U54A U60A U80C | 0.97
U54A U60C C62A | 0.32
U54A U67C U72C | 0.39
U54A U69C A77C U78A | 0.68
U54C A56G A64U | 0.49
U54C A56G C81U | 0.8
U54C A56G U60A A75G C81U | 0.21
U54C A56U C62U U69C | 0.22
U54C A56U U60C U76A | 0.13
U54C A57G U60C | 0.34
U54C A57G U69A | 0.29
U54C A65G U74C U78C | 0.85
U54C U58C U72C | 0.29

Variant | self-cleavage
U54C U60A U66A U72A | 0.26
U54C U60C A64G | 0.37
U54C U60C A65G | 0.1
U54C U67C U80C | 0.17
U54C U72A A75G | 1.29
U54C U72G U78C | 1.17
U54G A56G U72C U80A | 0.75
U54G A56U U69C | 0.19
U54G G73A U80C | 1.32
U54G U58C A64G | 0.16
U54G U58C A64G C71G | 0.24
G55A A57G A77G | 0.48
G55A U67C U69A | 0.17
G55A U72A U78A | 0.36
G55U A75G C79A | 0.83
G55U U60G U69C | 0.19
G55U U69A U76C | 0.77
A56C A64G U78C | 0.39
A56G A57G U69A | 0.15
A56G A64G A65G | 0.33
A56G A64U C68A U76C | 0.16
A56G A65G U67C U80C | 0.12
A56G A65G U72C | 0.29
A56G A65U U72A | 0.13
A56G A65U U80C | 0.17
A56G A77C U78A | 0.75

Variant | self-cleavage
A56G C59A U66C U76A | 0.09
A56G C59U U60C U67A | 0.13
A56G C62A A64U U67C | 0.36
A56G C62G U72C | 0.43
A56G C62U U72A | 0.28
A56G C71A U72C U78C U80G | 0.61
A56G U58G A64G | 0.18
A56G U60C G73C | 0.55
A56G U60C U72A | 0.39
A56G U60C U80A | 0.21
A56G U66A A77U | 0.53
A56G U66A U76A U78C | 0.24
A56G U66C U72C | 0.24
A56G U67C U72A | 0.23
A56G U69C C81A | 0.94
A56G U72A U76C | 0.38
A56G U72A U80G | 1.17
A56G U74C U80C | 1.2
A56G U76A U80C | 0.74
A56G U78C U80A | 0.65
A56U C59A A77U | 0.06
A56U G61C U67A | 0.44
A56U G63A A65G | 0.36
A56U U67A U78C | 0.23
A56U U67C U69C A77U | 0.51
A56U U69C A75U | 0.48

Variant | self-cleavage
A56U U69C U72C U76C | 0.31
A56U U69G U72A | 0.25
A57C U66C U69A | 0.18
A57G A64G C71U | 0.42
A57G A65G U67C U78C | 0.4
A57G A65G U80C | 0.04
A57G C59A G61A | 0.12
A57G U58C C68G | 0.18
A57G U58C U66G | 0.23
A57G U60A U66C A77G | 0.26
A57G U60C U76A | 0.22
A57G U66C C81G | 0.15
A57G U66C U80G | 0.31
A57G U67C C81U | 0.15
A57G U69C G70A | 0.37
A57G U69G A75U | 0.55
A57G U76C A77U | 0.96
A57U A64G A75U | 0.48
A57U A64U U69G | 0.23
A57U U58C A64U A65U | 0.14
A57U U58C A75U | 0.39
A57U U60A U72G U78A | 0.38
A57U U72C U78C | 0.91
U58A A64U G73U U74C | 0.19
U58A A64U U69A | 0.17
U58A A75G U80C | 0.14

Variant | self-cleavage
U58A U67C U69A A75G | 0.49
U58A U69C U80A | 0.24
U58A U74A A77U | 0.59
U58C A65U U72A U80C | 0.28
U58C G63C U72A U80A | 0.54
U58C G70U U72C | 0.44
U58C U60A U72G | 0.3
U58C U60C A65C G73C | 0.16
U58C U60C U76C | 0.18
U58C U60G U76A | 0.16
U58C U66C U69C U72C | 0.26
U58C U69A A77G | 0.36
U58C U69C C81U | 0.2
U58C U76C U78C | 0.57
U58G C71U A75G | 0.19
U58G C71U U78C | 0.32
U58G U76C A77G | 0.37
C59G A64U U72C C79A | 0.11
C59U U72C U80C | 1.06
U60A A64G A75C | 0.52
U60A A64G A75U | 0.37
U60A A65G U76C | 0.38
U60A U66C G73A | 0.29
U60A U66C G73A U76A A77G | 0.41
U60C C62G U66C | 0.29
U60C C68A U69C U76A | 0.11

Variant | self-cleavage
U60C G70A U76C | 0.48
U60C U66C U74C | 0.26
U60C U69A U72G | 0.29
U60C U72C A75G U80C | 0.54
U60C U72C U78C U80C | 0.32
U60G A65G U76C A77G | 0.15
U60G C62G U76A | 0.2
U60G C68A U80C | 0.36
G61A C62U U69C U72C | 0.24
C62G U66A U80C | 0.48
C62U A64G U69C U80A | 0.3
C62U A65G U67C | 0.5
C62U A75U U78C | 0.17
C62U C68A U80C | 0.21
C62U U66C G73A | 0.51
C62U U66C U69A U78C | 0.16
C62U U72C A77G | 0.29
C62U U74A A77U | 0.2
G63A A64G U66C | 0.47
G63A A64G U72G | 0.72
G63A A64G U80C | 0.64
G63A U66C U72C | 0.48
G63A U72C A75G | 1.19
G63A U72C A77G | 1.12
G63A U72C U80C | 1.18
G63C A64G U80C | 0.84

Variant | self-cleavage
A64G A65C U67C | 0.26
A64G A65G U66C U76A | 0.56
A64G U67A U72C C79U | 0.24
A64G U72C A75G U80A | 0.92
A64G U76C U78C | 0.93
A64U A75G U78C | 0.21
A64U U66C U69C | 0.3
A64U U69C G70C | 0.21
A65C G73C U80A | 0.15
A65G U66A C71U U72C | 0.22
A65G U66C U72A A75G A77G | 0.22
A65G U67A U69A | 0.31
A65G U72C C81U | 0.81
A65U U66C U69C | 0.09
A65U U69A U74C | 0.36
A65U U72A A77G U80A | 0.34
U66A A75G U76C | 0.25
U66A U72C U80C | 0.69
U66C A75U U78A | 0.43
U66C U67C U72A U76A | 0.13
U66C U69C U80C | 0.25
U66C U78C U80C | 0.21
U66G U67C C71A | 0.24
U67A U72A U74G | 0.72
U67A U72G U78C | 0.34
U67C G70C A77G | 0.17

Variant | self-cleavage
U67C U69C U72A | 0.29
U67C U74C U80C | 0.41
U69A A75G U80C | 0.22
U69A C71U U72A | 0.23
U69A C71U U72C | 0.48
U69A U72A G73C | 0.88
U69C A77U U80A | 0.87
U69C U72A U78C | 0.31
U69G U72C A77U | 0.44
U69G U74C U78C | 0.43
G70C U72C U80A | 0.26
U72C A77G C81A | 1.3
U72C G73U U78C U80C | 1.32
U72C U74C U80A | 1.26
U72C U76A U78A | 1.27
A75U C79A C81U | 1.49
